Among the data in PubChem BioAssay (NCI) are growth values, retold here.

In one experiment the test system is ACHN renal. Kind of experiment: NCI-60 one-dose screen, 48 h (100 = growth as untreated, 0 = no growth, -100 = all killed).
The test system of a further experiment is CAKI-1 renal. Described as above. The settings on record: 0.25 µM.

Some compounds were tested as several samples or in several runs, with calls that do not always agree.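 Activity criterion: percent growth below 10, measured after cells in 96-well plates were exposed to a single compound concentration for 48 hours.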 Not every entry of the source has a single result; some have several. Only these are listed. The source may hold further records. For part of these data: This drug was run again and again over the years, at its own concentration, as given; each value is one run. Additions like (4×) stand for listed records that agree. Some values that stand alone complete this part of the results. Active and inactive are the calls of the source.

On to `COc1cccc2c1C(=O)c1c(O)c3c(c(O)c1C2=O)C[C@@](O)(C(=O)CO)C[C@@H]3OC1CC(N)C(O)C(C)O1` (stereo not given in full), for which the growth result is “inactive: 33.1, 44.8, 34.4, 35.2, 49.6, 41.7, 49, 35.3, 39.2, 36.2, 39.5, 45, 20.7, 24.4 (2×), 22.8, 22.2 (2×), 22.7, 23.6, 19.9 (2×), 24.5 (2×), 25.3, 32.2, 36, 37, 35, 33.4, 37.9, 43.1, 24.3, 25, 26.9, 31 (2×), 33.3, 40.6, 28.3, 27.1, 31.3, 30.5, 32, 20.1, 26.2, 18.5, 18.4, 25.1, 23.4, 26.1%” in the experiment on ACHN renal (0.25 µM, runs of 2021); “active: 0.932%, 4.14%, 2.05% and inactive: 26, 31.7, 27.5, 17.9, 32, 37.9, 38.1, 50.5, 31.5, 25.2, 19.2, 46.2, 54.5, 30, 56.5, 43.4, 76.8, 25.9, 26.2, 33.1, 43.8%” in the experiment on ACHN renal (0.25 µM, runs of 2022); “active: 1.89, -3.03, 0.416, -6.82, -73.8, -19.5, -9.57, -21.8, -22.8, -6.11, 5.15, 0.695, 6.49, -17.9, -9.89, -3.66%” in the experiment with ACHN renal (25 µM, runs of 1991); “active: -0.873, -12.3, -26.5 (2×), -13.6, -34.2, -35.3 (2×), 1.11, -27.4, -1.49, -45.1, -40.9, -17.9 (3×), 4.46, -22.9, -29.3, -27.7, -41.1, -9.95, 2.07, -4.9, -40.4, 0.77, -31.3, 5.91, 1.64, -37.7, -15.1, -11 (2×), -12.5 (2×), -9.48, -20.9, -6.98, 2.86, 4.96, -19, -3.71, 4.72, -11.2, -2.99, 2.26, -3.56, -15.4, 3.3, -5.31, -26.6, -9.62, -31.9, -13.5, -32.3, 1.86, -16.2, 0.329, -9.78, -19.2, -14, 5.53, 2.45, -11.5, -33.9, -8.73, 6.02, -37.3, -44.1, -27, -21.9, -17.3 (2×), -16.5, -15.9, -19.9 (2×), -24.6, -10.3 (2×), -21.6 (2×), -44.4, -51.8, -15.8, -28.7, 0.696, 6.93, -23.6, -21.3, -22.2 (2×), -15.6, -26, -0.662, -61.7, 0.414, -20.5, -22.6, -6.71, -14.1, -11.3, -33.5, -37, -28.5, -10, -42.3, -42.1, -27.6, -23.7, -25.9, -22, -31, -23.9% and inactive: 98.8%, 11.9%” with ACHN renal (25 µM, runs of 1992); “active: -13.8 (2×), -10.2, -25.1, -38.1, -14.6, 2.61, 6.43, -22.9, -35, -43.9, 3.47, -2.13, -19.4, -21.8, -30, -30.8, -14.4, -23.4, -6.21, -21.7, -49, -21, -16.7, -16.3, -8.48, -29.9, -5.4, 0.672, 9.39, -1.86, -32.3, -9.86, -13.5, -26.7, -19.8, -5.98, -37.1, -27.5, -38.9, -51.2, -9.41, -27.8, 1.97, -41.4, -5.16% and inactive: 11.8%” in the experiment with ACHN renal (25 µM, runs of 1993); “inactive: 83.8% and active: -26.2, -41, -6.88, -5.37, -3.43, -21.6, 5, 1.45, 1.74, -24.7, -34.9, -8.86, -34.7, -32.7, -20, -2.29, 0.119, -34.5, -16.6, 7.32, -20.3, -20.2, 4.74, -38.6, 1.99, -26.1, -41.3, 1.4, -10.5, -8.03, -7.92, -10.1%” in the experiment on ACHN renal (25 µM, runs of 1994). For the same compound, the growth result was “active: -4.42, -0.783, -22.3 (2×), 2.48, -30, -39.6, -18, -18.6, -13.5, -29.8, -20.1, -30.9, -8.72, -3.97, -12.2, -19.4, -21.1, -18.1, -12.5, -26.4, -34.8, -19.6, -41.2, -15.3, -8.95, -25.6 (2×), 7.03, 6.05, -23.9, -40.5, -24.4, -44.5, 1.67, -16.7, -21.7, -23.8, -20.5, -30.1%” in the experiment with ACHN renal (25 µM, runs of 1995); “active: -30, -22.2, -27.1, -25.2, -45.1, 1.07, -57.1, -7.8, -38.5, -58.3, -47.3, -24.8, -16.2 (2×), -1.81, -50.4, -28.1, 0.764, 6.94, -19.2 (2×), -69.6, -17.1, 9.73, 5.08, 5.61, -38.1, -26.3, -8.05, -14.3, -27.6, -23.7, -3.29, -21.1, -22.4, -9.08, -15.8, 5.52, 8.1, 1.02, -22.5, -43.1, 4.88, -2.5, 5.37, 3.38, -13.2, -38.9, -24, -3, 5.96, 5.19, 6.22, -39.3, -21.7, 2.1% and inactive: 91.8%, 22.8%” in the experiment with ACHN renal (25 µM, runs of 1996); “active: -13.6, -27.8, 2.19, -22.2, -24.6, 9.25, -38.8, -36.1, 4.92, -20.8, -18.7 (2×), 3.22, 1.63, -5.58, 0.333, -44.8, -41, -23.6, -19.5, -13.5, -20.3, -30.5, 6.05, 2.69, 6.66, 8.39, -10, -34, -10.7, 4.91, 3.29, -22.7, -7.11, 9.68, -4.29, -23.4, -2.71, -45.9, 8.16, -0.18% and inactive: 10.7%” in the experiment on ACHN renal (25 µM, runs of 1997); “active: -17.5 (2×), -26.8, -28, 1.79, 5.74, -25.2, -24, -44.3, -46.2, -25, -26.4, -10.5, -57, -72.2, -52.7, -26.5, -35.3, -66.5, -21.2, -6.96% and inactive: 11.2%, 12.1%” in the experiment on ACHN renal (25 µM, runs of 1998); “active: -35.5, -27.7, -37.1, -9.54, -15, -26.9, -100 (5×), -45.7, -61.7, 2.02, -80.5, -1.41, -74.7, 3.61%” with ACHN renal (25 µM, runs of 1999); “active: -100% (2×), -85%, -81.9%” in the experiment with ACHN renal (25 µM, runs of 2000). Also, the growth is inactive: 31.6% with CAKI-1 renal (runs of 2006); “inactive: 70.1, 13.1, 62, 56.9, 72.5, 62.4, 75.2, 67.2, 29.7, 26.3, 18.7, 20, 23.6, 20.3, 10.8, 29.9, 39.2, 40.1, 39.7, 47.7, 37, 52.6, 42, 61.4, 63.8, 72.8, 55.6, 56.1, 12.1, 58.2, 58.6, 57.6, 58.4, 50, 64.8, 46, 36.9, 61.9, 54.1, 62.7, 64% and active: -4.16%” in the experiment with CAKI-1 renal (runs of 2007); “inactive: 63.3, 38.7, 54.4, 27.5, 31.7, 31.5, 15, 17.5, 17.9, 22.8, 13, 18.9 (2×), 48.4, 74.7, 58.9, 23.6, 34.5, 16.1, 49.3, 65.9, 46.6, 40.4, 66.9, 59.6, 62.5, 64.2, 63.2, 64.5 (2×), 64.3, 41, 59.3, 56.6, 54.8, 77.3, 53, 61.3, 63.5, 77.7, 20.6, 22.6, 14.3, 33.5, 39.6% and active: -36.8, 2.66, -0.536, -8.01, 8.08%” with CAKI-1 renal (runs of 2008).
